Results published in the antibiotic and cytotoxicity screens of Wong et al. (2023).
Some of the results follow.

System: HSkMC (human skeletal muscle cells)
Test: cytotoxicity call (relative viability < 0.9)
Conditions: 10 µM

Structure (SMILES) | cytotoxicity call
C[C@@H]1CCCCO[C@H](CN(C)S(=O)(=O)c2cccs2)[C@H](C)CN([C@H](C)CO)C(=O)c2cc(NC(=O)Cc3ccccc3)ccc2O1 | inactive
CS(=O)(=O)N1C[C@H]2CN(C(=O)c3cnccn3)C[C@@H]2C1 | inactive
CC(C)C[C@H](NC(=O)CNC(=O)c1cc(Cl)ccc1Cl)B1OC(=O)C[C@](CC(=O)O)(C(=O)O)O1 | active
C[C@@H]1CCCCO[C@@H](CN(C)Cc2ccc(C(=O)O)cc2)[C@H](C)CN([C@H](C)CO)C(=O)c2cc(NS(=O)(=O)c3ccc(Cl)cc3)ccc2O1 | inactive
CC(=O)N1CCn2nncc2C[C@@]1(C)C1CC1 | inactive
CN(C)C(=O)C[C@@H]1C=C[C@@H](NC(=O)C2CC2)[C@H](CO)O1 | inactive
CC(C)NC(=O)N[C@@H]1C=C[C@@H](CC(=O)NCCCN(C)C)O[C@@H]1CO | inactive
COc1cnc(-n2cnc(C)n2)c2c1c(C(=O)C(=O)N1CCN(C(=O)c3ccccc3)CC1)cn2COP(=O)(O)O | inactive
C[C@@H]1CN([C@@H](C)CO)C(=O)c2cc(C#CC3(O)CCCC3)cnc2O[C@@H]1CN(C)C(=O)C1CCCCC1 | inactive
CCn1cc(C(=O)O)c(=O)c2cc(F)c(N3CCNC(C)C3)c(F)c21.Cl (stereo not given) | inactive
COc1cccc(S(=O)(=O)N[C@H]2CC[C@@H](CC(=O)NC3CCC3)O[C@H]2CO)c1 | inactive
O=C(C[C@H]1C[C@@H]2c3cc(NS(=O)(=O)c4ccc(F)cc4)ccc3O[C@@H]2[C@H](CO)O1)NC1CCCC1 | inactive
C[C@H]1CN([C@@H](C)CO)C(=O)c2ccccc2-c2ccccc2CO[C@H]1CN(C)Cc1ccc(C(F)(F)F)cc1 | inactive
O=C1OC(c2ccc(O)cc2)(c2ccc(O)cc2)c2ccccc21 | inactive
Cc1noc(C)c1NC(=O)N(C)C[C@H]1Oc2ccc(NS(C)(=O)=O)cc2CC(=O)N([C@H](C)CO)C[C@@H]1C | inactive
C[C@@H]1CN([C@H](C)CO)C(=O)c2cccc(NC(=O)c3nc4ccccc4s3)c2O[C@H]1CN(C)Cc1ccc(-c2ccccc2)cc1 | inactive
COc1cccc(S(=O)(=O)N(C)C[C@@H]2Oc3cc(C#CCC(C)C)ccc3S(=O)(=O)N([C@@H](C)CO)C[C@H]2C)c1 | inactive
C[C@H]1CN([C@@H](C)CO)C(=O)c2cc(NS(=O)(=O)c3cccs3)ccc2O[C@H]1CN(C)S(=O)(=O)c1ccc(F)cc1 | inactive
C[C@H]1CN([C@@H](C)CO)C(=O)Cc2cc(NC(=O)Nc3cccc4ccccc34)ccc2O[C@H]1CN(C)Cc1ccc(-c2ccccc2)cc1 | inactive
Cc1noc(C)c1NC(=O)Nc1ccc2c(c1)C(=O)N([C@H](C)CO)C[C@H](C)[C@H](CN(C)Cc1ccc(C(=O)O)cc1)OCCCC[C@H](C)O2 | inactive

Structure (SMILES) | cytotoxicity call
Cc1noc(C)c1S(=O)(=O)N(C)C[C@H]1OCCCC[C@@H](C)Oc2ccc(NC(=O)Nc3cccc4ccccc34)cc2C(=O)N([C@@H](C)CO)C[C@H]1C | inactive
CC1(C)OC(=O)C2(C(=O)O1)[C@@H](c1ccc(-c3ccc(-c4ccc(O)cc4)cc3)cc1)CC(=O)C[C@H]2c1ccccc1 | inactive
Clc1ccc(-c2cc[nH]n2)cc1 | inactive
C[C@H]1CN([C@@H](C)CO)C(=O)c2cc(NS(=O)(=O)c3ccc(F)cc3)ccc2O[C@@H]1CN(C)S(=O)(=O)c1ccc(F)cc1 | inactive
CC(=O)N(C)C[C@H]1Oc2cc(C#CCN(C)C)ccc2S(=O)(=O)N([C@H](C)CO)C[C@H]1C | inactive
Cc1noc(C)c1NC(=O)N(C)C[C@H]1Oc2c(NC(=O)Nc3cccc4ccccc34)cccc2C(=O)N([C@@H](C)CO)C[C@@H]1C | inactive
COc1ccccc1CNC(=O)C[C@@H]1CC[C@H]2[C@@H](COC[C@H](O)CN2S(=O)(=O)c2ccc(C)cc2)O1 | inactive
CNC(=O)CN(C#N)c1nc(C)cc(C)n1 | inactive
C[C@H](CO)N1C[C@H](C)[C@H](CN(C)S(=O)(=O)c2cn(C)cn2)OCCCC[C@H](C)Oc2ccc(NS(=O)(=O)c3cccs3)cc2C1=O | inactive
O=C(C[C@H]1CC[C@H](NC(=O)c2cnccn2)[C@@H](CO)O1)NCc1ccccc1F | inactive
C[C@@H]1CCCCO[C@@H](CN(C)Cc2ccccc2)[C@@H](C)CN([C@@H](C)CO)C(=O)c2cc(NC(=O)Nc3cccc4ccccc34)ccc2O1 | inactive
COc1ccc(C#Cc2cnc3c(c2)C(=O)N([C@@H](C)CO)C[C@@H](C)[C@@H](CN(C)CC2CCOCC2)O3)cc1 | inactive
C[C@H](CO)N1C[C@H](C)[C@H](CN(C)C(=O)Cc2cccnc2)Oc2cc(-c3cncnc3)ccc2S1(=O)=O | inactive
Cc1ccc(S(=O)(=O)N(C)C[C@@H]2OCCCC[C@H](C)Oc3ccc(NC(=O)Nc4ccc5c(c4)OCO5)cc3C(=O)N([C@H](C)CO)C[C@@H]2C)cc1 | inactive
CO[C@@H]1CN(C)C(=O)c2cc(NC(=O)C3CCOCC3)ccc2OC[C@H](C)N(Cc2cccnc2)C[C@H]1C | inactive
C[C@H]1CC/C=C\[C@H]2O[C@@]34C=CCN(c5ccc6ccccc6c5)C(=O)[C@H]3N(CCCO)C(=O)[C@@H]4[C@@H]2C(=O)O1 | inactive
C[C@H](CO)N1C[C@H](C)[C@H](CN(C)S(C)(=O)=O)Oc2c(NC(=O)c3ccc(-c4nccs4)cc3)cccc2C1=O | inactive
CN1C(=O)c2cc(NC(=O)c3cnccn3)ccc2OC[C@@H]2O[C@H](CC(=O)N[C@@H]3CCN(Cc4ccccc4)C3)CC[C@@H]21 | inactive
C[C@@H]1CN([C@@H](C)CO)S(=O)(=O)c2ccc(-c3ccc(F)cc3)cc2O[C@@H]1CN(C)S(C)(=O)=O | inactive
C[C@H]1CN([C@@H](C)CO)C(=O)c2cccc(NC(=O)Nc3ccc(F)cc3)c2O[C@H]1CN(C)Cc1ccc(Cl)c(Cl)c1 | inactive
